# Results published in the supplement of paper PMC3334620.
# Over roughly 33,000 sequences, “E-score (-0.5 to 0.5)” has its median near -0.043; the highest 2% begin near 0.37. The list shows a part of the results.
# Biological target: T1, Upc2 (UniProt Q12151)
# T1 sequence: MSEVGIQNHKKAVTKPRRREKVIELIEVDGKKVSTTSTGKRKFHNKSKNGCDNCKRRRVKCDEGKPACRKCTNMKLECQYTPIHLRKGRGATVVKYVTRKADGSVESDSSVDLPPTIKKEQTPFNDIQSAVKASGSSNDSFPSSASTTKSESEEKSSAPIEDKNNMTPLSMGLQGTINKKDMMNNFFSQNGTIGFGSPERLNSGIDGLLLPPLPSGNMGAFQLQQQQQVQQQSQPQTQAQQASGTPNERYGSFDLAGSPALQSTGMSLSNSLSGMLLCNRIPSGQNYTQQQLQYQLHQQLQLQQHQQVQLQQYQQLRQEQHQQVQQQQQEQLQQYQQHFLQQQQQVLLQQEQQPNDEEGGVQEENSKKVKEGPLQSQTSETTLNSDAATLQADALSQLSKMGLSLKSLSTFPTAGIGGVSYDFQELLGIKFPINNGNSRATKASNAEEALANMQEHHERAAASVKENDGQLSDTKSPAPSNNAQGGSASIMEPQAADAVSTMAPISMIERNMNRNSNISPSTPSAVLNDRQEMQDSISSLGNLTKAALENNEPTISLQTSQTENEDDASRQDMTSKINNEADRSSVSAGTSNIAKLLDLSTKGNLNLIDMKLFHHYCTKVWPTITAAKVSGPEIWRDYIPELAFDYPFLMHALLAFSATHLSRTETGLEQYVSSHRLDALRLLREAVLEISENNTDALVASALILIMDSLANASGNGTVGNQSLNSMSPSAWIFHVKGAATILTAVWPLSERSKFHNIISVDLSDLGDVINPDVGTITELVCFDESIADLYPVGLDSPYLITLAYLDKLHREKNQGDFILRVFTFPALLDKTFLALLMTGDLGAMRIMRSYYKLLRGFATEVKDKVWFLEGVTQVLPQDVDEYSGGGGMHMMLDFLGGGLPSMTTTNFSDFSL
# Experiment: PBM E-score (8-mer binding enrichment) (E-score (-0.5 to 0.5)); higher = stronger / more preferred TF binding; most listed sequences are background and not binding sites
# Conditions: protein concentration: 200 nM; construct: GST-full length
# In short: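 GST-tagged yeast TFs (full-length or DNA-binding domain) were made by PURExpress in vitro transcription/translation and applied at about 100-200 nM to universal all-10-mer Agilent arrays. The arrays were made double-stranded by primer extension, on fresh or once-stripped slides. Bound protein was detected with fluorescent anti-GST, and scans were normalised with masliner. Each ungapped eight-base word, pooled with its reverse complement, received an E-score (modified Wilcoxon-Mann-Whitney statistic) from the Universal PBM Analysis Suite.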
row,Sequence,PBM E-score
1,AGTGTATA,0.211
2,GAGTTCGC,-0.079
3,ACTCCAGG,-0.104
4,GCTAGTAA,-0.105
5,GCAAGAGC,-0.186
6,CACATCCG,-0.0107
7,GAATCCCC,-0.222
8,ACTCAGTC,-0.097
9,GCCAGTCA,-0.158
10,CGATGACG,0.0815
11,CCGATCTC,-0.136
12,CGGTACAG,0.12
13,AAGGACCT,-0.0968
14,CGGTTAAG,0.282
15,AGTGAATC,-0.166
16,CTCTCGAC,-0.195
17,GCGATTCA,0.11
18,AGCTGATC,-0.0688
19,AGCATAAT,0.0553
20,GCCCTCTA,-0.147
21,AAAACATG,0.115
22,CAGTTACA,-0.0631
23,ACGCTCAG,0.0359
24,GCAGGGCA,-0.146
25,AATTAGAC,-0.0806

row,Sequence,PBM E-score
1,ATGACTAG,-0.097
2,AGGAGCGA,0.222
3,ATTGGTCA,-0.18
4,ATCCGGCA,-0.198
5,CGACGGGA,0.228
6,AGTAGTAA,0.0705
7,AGATATCG,0.0804
8,AGGGACCG,-0.175
9,CACTGTGA,-0.094
10,CTCTTGAA,-0.225
11,TAGTGGCA,-0.0752
12,AAAGGCAG,-0.0656
13,CAACGATC,0.11
14,TCAACGGA,0.0819
15,ATCATCGA,-0.176
16,TACGCAAA,0.263
17,ATAGAACG,0.253
18,AGTCGAGA,-0.0448
19,CGTTCATA,0.361
20,CAACCTGA,-0.12
21,CACGATAA,0.074
22,CATGCCGC,0.0567
23,GGTCGGCA,-0.0973
24,AAGAGGCT,-0.257
25,ACATCTTC,-0.077

row,Sequence,PBM E-score
1,GATCGCGC,0.115
2,TCCCTAGA,-0.106
3,ATTTATCG,0.201
4,CGAGTGCC,-0.0763
5,AACAAGGA,0.0181
6,GGAGCTCC,-0.228
7,CCTGGGCG,-0.186
8,ACCGTTAA,0.289
9,GAGTTTGA,-0.0818
10,ACGGAAAC,0.26
11,ACCTGGCC,-0.207
12,CATATACG,0.463
13,CCGGGTCA,-0.0975
14,CACATTTA,-0.083
15,CAGAAAGA,-0.00388
16,TGAAATCA,-0.103
17,GCATACTA,-0.132
18,CCTACCAG,-0.143
19,CCTAGCTA,-0.232
20,GAACCCCA,-0.113
21,CGACTAAC,0.0797
22,ATACAACC,0.0511
23,ACCGATGA,0.0812
24,CCCATTCA,-0.145
25,ACTTGAAA,-0.069

row,Sequence,PBM E-score
1,AGGTTGTG,-0.275
2,ATGGCCGC,-0.101
3,CACGTAGA,0.0732
4,CGTTTGGC,0.409
5,CTCGCATC,0.247
6,AGCATGAA,-0.136
7,ATGACCTC,-0.0652
8,AATGGTCT,-0.213
9,ACTCAGCG,-0.141
10,GGGCAAGA,0.0892
11,CACGGCTC,-0.128
12,GCGTACAA,0.324
13,ACTATGCG,0.293
14,CTTCAGAC,-0.123
15,CTATGTTA,-0.113
16,CCGTTTAC,0.451
17,CATGTACA,-0.00834
18,GATTAGAA,0.0377
19,GTAGCCAC,-0.15
20,GATGATGA,-0.118
21,AAGATTTG,-0.0159
22,CAACGTCC,-0.176
23,AAGATTGT,0.00873
24,ATTACTCC,-0.134
25,AGGGGAAA,-0.215

row,Sequence,PBM E-score
1,AACTGCGC,-0.0647
2,CCGTGACG,-0.18
3,AATTGGCG,0.105
4,CCTCGTTA,0.399
5,GCGGCTTA,-0.188
6,GTCAAATA,0.0795
7,CTTATATA,0.207
8,CGCACTTC,-0.0494
9,AAATTACA,0.179
10,GAGTAGGA,-0.198
11,CAACTAGA,-0.153
12,AAGATATC,-0.102
13,CTATTTGC,-0.106
14,TCGATTAA,0.305
15,AGTGCGCC,-0.168
16,CGGCTATA,0.0456
17,AACCCCTT,-0.16
18,CTCCAAAA,-0.183
19,CAAGCACC,-0.172
20,CTTACCTA,-0.0428
21,GACTCGAC,0.0265
22,GCCGAGAA,0.068
23,AGTTTCTA,-0.00903
24,CTTTCAGC,-0.123
25,GGTCTAAC,-0.129

row,Sequence,PBM E-score
1,ACCACACG,0.104
2,GCCTGGTA,-0.0182
3,CATGGAGG,-0.288
4,CTAGCGCC,-0.168
5,AACCAACT,0.009
6,GTAGAGAC,-0.0871
7,AAGTGTGC,-0.127
8,CACTACCA,0.0739
9,GCTGTTAC,-0.0869
10,ACGCATCC,0.207
11,CCTTTTGA,0.0176
12,CAGCGTGG,-0.162
13,ATTTGGTC,0.0639
14,ACATAACC,-0.0515
15,ATACTGCG,0.162
16,AGTCACAA,-0.00025
17,CATGGTCC,-0.175
18,CCCGACAC,-0.193
19,CAAGTTGG,-0.108
20,ATCCCATA,-0.123
21,AAGCGCGG,-0.151
22,ATGAGGAA,-0.0947
23,CCAAGCGA,0.243
24,CATGCGGC,-0.23
25,ATAGCAAA,-0.0399

row,Sequence,PBM E-score
1,GTATGAGA,0.126
2,GCAAGCCC,-0.109
3,CATCCTGC,-0.201
4,GCGATTAC,0.0838
5,GACCGCGA,0.0859
6,CCACTCAC,-0.0969
7,CCTTAATA,-0.239
8,GATGCATA,0.0988
9,ACTGGTGA,-0.187
10,CCCCCCCA,-0.309
11,CACTCTCC,-0.196
12,CAAGATAG,-0.0974
13,GGTACAGA,-0.0181
14,CGGAAAAG,0.113
15,AACCAGCA,-0.249
16,CTAGAGCC,-0.322
17,CCACAACC,0.0353
18,AAGAGAGT,-0.0851
19,GCGTGAGA,-0.00735
20,ATTTTTGC,0.0991
21,AACCTTTC,-0.0976
22,ATTGTCGG,0.0788
